Reference: patent US11000038B2, “Pyridone compounds and agricultural and horticultural fungicides containing the same as active ingredients” (priority 2017, dated 2021)

Legend:
[1] = tested on: grape downy mildew fungus (Plasmopara viticola); assay: Test Example G: grape downy mildew, spray treatment of grape plants; details: 250 ppm spray, 2.5 ml/pot, grape Neomuscat; 7 to 10 days from inoculation
[2] = tested on: cabbage Alternaria sooty spot fungi (Alternaia brassicicola); assay: Test Example C: cabbage Alternaria sooty spot, spray treatment of cabbage plants; assay type: in vivo; details: spray treatment of cabbage plants; control value=100{1-(n/3)}
From the text: [Test Example C] Cabbage Alternaria Sooty Spot
Test plants (cabbage variety: Shikidori) were cultivated until the cotyledons extended after the sowing of seeds.
<Control Value> Control value=100{1−(n/3)}

[3] = tested on: barley powdery mildew fungi (Blumeria graminis f. sp. hordei); assay: Test Example D: barley powdery mildew, spray treatment of barley plants; details: spray treatment of barley plants; control value=100{1-(n/3)}
[4] = tested on: gray mold fungi (Botrytis cinerea); assay: Test Example B: tomato gray mold, spray treatment of tomato plants; details: spray treatment of tomato plants; control value=100{1-(n/3)}
[5] = tested on: wheat brown rust fungi (Puccinia recondita); assay: Test Example E: wheat brown rust, spray treatment of wheat plants; assay type: in vivo; details: spray treatment of wheat plants; control value=100{1-(n/3)}

SMILES	Test G control value class (grape downy mildew) [1]	Test C control value class (cabbage Alternaria sooty spot) [2]	Test D control value class (barley powdery mildew) [3]	Test B control value class (tomato gray mold) [4]	Test E control value class (wheat brown rust) [5]
Cc1c(-c2c(F)cc(F)cc2F)n(C(C)C(C)C)cc(C(F)(F)F)c1=O (centres unmarked) [Compound 157]	L (L shows the control value of 50% or less)	H (H shows the control value of more than 50%)	H (H shows the control value of more than 50%)	H (H shows the control value of more than 50%)	L (L shows the control value of 50% or less)
CC1CCCCC1n1cc(Br)c(=O)c(Cl)c1-c1c(F)cc(F)cc1F (centres unmarked) [Compound 159]	L (L shows the control value of 50% or less)	H (H shows the control value of more than 50%)	L (L shows the control value of 50% or less)	H (H shows the control value of more than 50%)	H (H shows the control value of more than 50%)
CC1CCCCC1n1cc(Br)c(=O)c(Br)c1-c1c(F)cc(F)cc1F (centres unmarked) [Compound 160]	L (L shows the control value of 50% or less)	H (H shows the control value of more than 50%)	L (L shows the control value of 50% or less)	H (H shows the control value of more than 50%)	H (H shows the control value of more than 50%)
O=c1c(Cl)cn(CC(F)F)c(-c2c(F)cc(F)cc2F)c1Br [Compound 161]	L (L shows the control value of 50% or less)	H (H shows the control value of more than 50%)	L (L shows the control value of 50% or less)	H (H shows the control value of more than 50%)	H (H shows the control value of more than 50%)
Cc1cccc(-n2cc(Br)c(=O)c(Cl)c2-c2c(F)cc(F)cc2F)c1C [Compound 163]	H (H shows the control value of more than 50%)	H (H shows the control value of more than 50%)	H (H shows the control value of more than 50%)	H (H shows the control value of more than 50%)	H (H shows the control value of more than 50%)
CCC(C)Cn1cc(Cl)c(=O)c(Br)c1-c1c(F)cc(F)cc1F (centres unmarked) [Compound 165]	H (H shows the control value of more than 50%)	H (H shows the control value of more than 50%)	H (H shows the control value of more than 50%)	H (H shows the control value of more than 50%)	H (H shows the control value of more than 50%)
CCC(C)Cn1cc(Br)c(=O)c(Cl)c1-c1c(F)cc(F)cc1F (centres unmarked) [Compound 166]	H (H shows the control value of more than 50%)	H (H shows the control value of more than 50%)	H (H shows the control value of more than 50%)	H (H shows the control value of more than 50%)	H (H shows the control value of more than 50%)
CCC(C)Cn1cc(Br)c(=O)c(Br)c1-c1c(F)cc(F)cc1F (centres unmarked) [Compound 167]	H (H shows the control value of more than 50%)	H (H shows the control value of more than 50%)	H (H shows the control value of more than 50%)	H (H shows the control value of more than 50%)	H (H shows the control value of more than 50%)
CCC(C)Cn1cc(Br)c(=O)c(Cl)c1-c1c(F)cc(OC)cc1F (centres unmarked) [Compound 169]	H (H shows the control value of more than 50%)	H (H shows the control value of more than 50%)	L (L shows the control value of 50% or less)	H (H shows the control value of more than 50%)	H (H shows the control value of more than 50%)
COc1cc(F)c(-c2c(Br)c(=O)c(Cl)cn2C2CCCCC2C)c(F)c1 (centres unmarked) [Compound 170]	L (L shows the control value of 50% or less)	H (H shows the control value of more than 50%)	L (L shows the control value of 50% or less)	H (H shows the control value of more than 50%)	H (H shows the control value of more than 50%)
COc1cc(F)c(-c2c(Cl)c(=O)c(Br)cn2C2CCCCC2C)c(F)c1 (centres unmarked) [Compound 171]	L (L shows the control value of 50% or less)	H (H shows the control value of more than 50%)	L (L shows the control value of 50% or less)	H (H shows the control value of more than 50%)	H (H shows the control value of more than 50%)
Cc1cccc(-n2cc(Cl)c(=O)c(Br)c2-c2c(F)cc(F)cc2F)c1C [Compound 172]	L (L shows the control value of 50% or less)	H (H shows the control value of more than 50%)	H (H shows the control value of more than 50%)	H (H shows the control value of more than 50%)	H (H shows the control value of more than 50%)
Cc1cccc(-n2cc(Cl)c(=O)c(Cl)c2-c2c(F)cc(F)cc2F)c1C [Compound 173]	L (L shows the control value of 50% or less)	H (H shows the control value of more than 50%)	H (H shows the control value of more than 50%)	H (H shows the control value of more than 50%)	H (H shows the control value of more than 50%)
